SMILES strings stand for the structures. The whole screen tested about 48,000 compounds, of which about 120 (0.25%) were called active. About 4% were inconclusive and are not listed. The call rests on the fitted dose curve; in most records, active means well fitted activation curve with a large enough effect; inconclusive means small, poorly fitted or top-dose-only effect, or another doubt; inactive means no such curve, though single readings can be large or run the other way. This is one part of the list.

A short description of this experiment: Primary qHTS for Identification of Small Molecule Activators of Huntingtin-Antisense Promoter Activity. Further: nearly all actives have a fitted effect of over 55% in size. The following applies: HEK293 HTT-AS promoter firefly luciferase reporter, 24 h; series mostly up to 57.5 µM; activity change, positive = activation: at the top concentration. In outline:
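Firefly luciferase readout (Dual-Glo, 10 min RT) after 24 h, 37 °C compound exposure (final up to 57.5 uM) of HEK293 reporter cells cultured 24 h beforehand; PTC124 at 50 uM final as control inhibitor; activity scaled vehicle 0%, zero RLU -100%.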
For orientation: Quantitative high-throughput screening tests each substance at several concentrations.
With `CC(CCc1ccccc1)NC(=O)CSc1n[nH]c(-c2ccccc2Cl)n1` (stereo not drawn), the “activity change, positive = activation” value is inactive: -21%. For `COc1ccc(OC(=O)c2cn(-c3cccc(OC)c3)c(=O)c3ccccc23)cc1`, the “activity change, positive = activation” value was inactive: -20.9%. To `Cc1cc(F)ccc1NC(=O)C1CCCN(C(=O)c2cnn(-c3ccccc3)c2-n2cccc2)C1` (stereo not drawn) belongs inactive: -44.4%; to `Cc1ccc(OC(C)C(=O)N2CCN(CCc3ccccn3)CC2)cc1C` (stereo not drawn), inactive: -4.44%. In the case of `O=S(=O)(NCC(c1ccco1)S(=O)(=O)c1cccs1)c1ccccc1` (stereo not drawn), the “activity change, positive = activation” value is inactive: 6.8%. To `Cc1nc2ccccc2n1CCc1nc2c3ccccc3nc(SCc3ccccc3F)n2n1` belongs inactive: -10.8%; to `CCc1ccc(CNC(=O)c2ccc(Cn3c(=O)c4cccn4c4cccnc43)cc2)cc1`, inactive: -20.5%. To `CCCc1nnc(NC(=O)CSc2nnc3c4ccccc4n(CC)c3n2)s1` belongs inactive: -14.1%. To `Cn1nc(-c2ccccc2)c(-c2ccccc2)c(C(=O)Nc2ccccc2C(N)=O)c1=O` belongs inactive: -8.59%; to `CN(C)c1ccc(-c2nc3ccc(Cl)cn3c2Nc2ccc3c(c2)OCCO3)cc1`, inactive: 31%. Turning to `CCCN(CCC)c1cc(C)nc2nc(-c3ccc(C(C)(C)C)cc3)nn12`, the “activity change, positive = activation” value is inactive: -14.6%. With `Cc1cc(C)cc(N2C(=O)CSC23C(=O)N(CC(N)=O)c2ccccc23)c1` (stereo not drawn), the “activity change, positive = activation” value was inactive: -0.115%.

On to `CCOCCCNC(=O)Cn1ncc2c([nH]c3ccc(C)cc32)c1=O`, for which the “activity change, positive = activation” value was inactive: -13.8%. To `Cc1ccc(C)c(N2CCN(C3(c4ccccc4)C(=O)c4ccccc4C3=O)CC2)c1` belongs inactive: -22.2%; to `COCCN(Cc1ccc(C)c(Br)c1)S(=O)(=O)c1ccc2[nH]c(=O)ccc2c1`, inactive: -36%; to `CCOC(=O)c1ccc(NC(=O)c2cc(=O)c3ccc(C)c(C)c3o2)cc1`, inactive: -0.64% [at 11.5 µM, percent change from vehicle, -100% = no light]. Turning to `CC(=O)N1CCc2cc(Br)cc(S(=O)(=O)CCC(=O)N3CCN(c4cccc(C)c4C)CC3)c21`, the “activity change, positive = activation” value was inactive: -34.3%. To `CCC[C@@H](NC(=O)[C@@H]1[C@H]2CCC[C@@H]2CN1C(=O)[C@@H](NC(=O)[C@@H](NC(=O)c1cnccn1)C1CCCCC1)C(C)(C)C)C(=O)C(=O)NC1CC1` belongs inactive: -21.1%; to `CC(C)(C)C1CCc2c(sc(NC(=O)c3cc(-c4ccc(F)cc4)on3)c2C#N)C1` (stereo not drawn), inactive: 18.9%; to `Cc1cc(C)cc(-n2ccn3cnnc3c2=O)c1`, inactive: -9.09%. With `Cc1ccc(OCC(=O)OCc2cc(=O)n3nc(C4CC4)sc3n2)cc1C` the figure was inactive: -14.4%. With `CCC(C(=O)NCCc1ccc(OC)c(OC)c1)n1nc(C)c2sc3ccccc3c2c1=O` (stereo not drawn) the figure was inactive: -27.4%; with `CCCN(c1ccccc1F)S(=O)(=O)c1cc(-c2cc(C)no2)ccc1C`, inactive: -31.7%; with `Cn1cc(C=CC(=O)c2cccc(F)c2)cc1C=CC(=O)NO`, inactive: 17.1%. `CSc1cccc(Nc2cc(C(=O)NC3CCCCC3)c3ccccc3n2)c1`: the “activity change, positive = activation” value is inactive: -24%. With `CCc1ccc2occ(CC(=O)Nc3c(C(=O)c4ccc(F)cc4)oc4ccccc34)c2c1` the figure was inactive: -12.2%; with `COc1ccc(C)cc1NC(=O)Cn1c(=O)oc2cc(S(=O)(=O)N3CCCCCC3)ccc21`, inactive: -24.5%; with `CN1CCN(Cc2ccc(NC(=O)Nc3ccc(Oc4cc(NC(=O)C5CC5)ncn4)cc3)cc2C(F)(F)F)CC1`, inactive: -30.9%. To `COC(=O)c1ccc(NC(=O)C(=O)NCCc2csc3nc(-c4ccccc4F)nn23)cc1` belongs inactive: 1.63%; to `CCOC(=O)N1CCN(Cc2nc3cc(NC(=O)CC(C)C)ccc3n2C(C)C)CC1`, inactive: -41.9%; to `CCN(CC)S(=O)(=O)c1ccc2c(c1)N(CC(=O)Nc1cccc(C)c1C)C(=O)C1CCCN21` (stereo not drawn), inactive: -8.82%. With `O=C(CCCN1CCC(O)(c2ccc(Cl)cc2)CC1)c1ccc(F)cc1` the entry was “inactive”; with `COc1cccc(-c2noc(-c3cc4ccccc4oc3=O)n2)c1OC`, inactive: 29.2%; with `O=C(NCc1ccc2c(c1)CCN2C(=O)c1ccc(F)cc1)c1c(F)cccc1F`, inactive: -17.5%. As to `COc1cc(OC)c(NC(=O)C(CC(C)C)N2Cc3ccccc3C2=O)cc1Cl` (stereo not drawn), the “activity change, positive = activation” value is inactive: -23.4%. With `CCOc1ccccc1NC(=O)CSc1cn(CC(=O)N2CCCCCC2)c2ccccc12` the figure was inactive: -22.4%. To `COc1ccc(C)cc1NC(=O)CSc1ncc2c(n1)-c1ccc(Cl)cc1N(Cc1ccccc1)S2(=O)=O` belongs inactive: -13.7%. To `Nc1nonc1-c1nc2ccccc2n1CC(=O)Nc1cccc(C(F)(F)F)c1` belongs inactive: -32%; to `Cc1ccc(NC(=O)CCN2C(=O)c3ccccc3Sc3ncccc32)cc1`, inactive: -13.4%; to `CC1=C(C(=O)Nc2ccccc2)C(c2ccc(F)cc2)n2nc(SCc3cc(C)ccc3C)nc2N1` (stereo not drawn), inactive: 10.9%. In the case of `COCCn1c(C)cc(O)c(C(c2ccccc2)N2CCCCC2)c1=O` (stereo not drawn), the “activity change, positive = activation” value is inactive: 2.58%. Turning to `CCc1ccccc1NC(=O)N1CCN(Cc2nc3ccc(C)cc3o2)CC1`, the “activity change, positive = activation” value was inactive: -18.8%. As to `Cc1ccc(-n2ncc3c(Nc4ccc(Oc5ccccc5)cc4)ncnc32)cc1`, the “activity change, positive = activation” value was inactive: 0.329%.

With `Cc1cccc(Cn2cc3c(=O)n(CC(=O)Nc4cccc(C)c4C)nc-3c3cc(F)ccc32)c1`, the “activity change, positive = activation” value is inactive: -26.6%. To `Cc1c(C(=O)Nc2cccc(C(F)(F)F)c2)sc2nc3n(c(=O)c12)CCC3` belongs inactive: -1.35%; to `COc1ccc(NC(=O)c2cc(C3CC3)nc3c2c(C)nn3-c2ccccc2)c(OC)c1`, inactive: -13.9%; to `CC(C)Cc1nn2c(=O)cc(COC(=O)c3cccc(NC(=O)c4ccccc4)c3)nc2s1`, inactive: 4.25%. On to `CCCN(CCC)CCNC(=O)c1cc2c(=O)oc3ccc(C)cc3c2s1`, for which the “activity change, positive = activation” value was inactive: -8.77%. With `Cc1cccc(N2CCN(C(=O)c3cc4ccc5cccnc5c4[nH]3)CC2)c1C` the figure was inactive: -18.8%; with `CCOCCCNC(=O)Cn1ncc2c([nH]c3ccccc32)c1=O`, inactive: -7.01%; with `Clc1ccccc1CNCCCSc1nnnn1-c1ccccc1`, inactive: -7.79%. With `CCOc1ccc(/C=C/c2nc(C#N)c(NCc3ccc(OC)cc3)o2)cc1` the figure was inactive: -14.7%; with `Cc1noc(C)c1S(=O)(=O)N(CC(=O)Nc1ccc(C(F)(F)F)cc1)c1ccc(C(C)C)cc1`, inactive: -42%; with `CCOc1ccccc1CNC(=O)CN1C(=O)c2cccnc2Oc2ccc(Cl)cc21`, inactive: -15.9%. To `COc1ccc(S(=O)(=O)N2CCCCC2)cc1C(=O)NC1CCS(=O)(=O)C1` (stereo not drawn) belongs inactive: 2.86%; to `Cc1ccc(C(=O)c2cn(Cc3ccccc3)c3c(F)cc(F)cc3c2=O)cc1`, inactive: -22.3%; to `CCS(=O)(=O)N1CCC2(CC1)OC(=O)C(C)=C2C(=O)NCc1ccc(OC)c(OC)c1`, inactive: -2.48%. Take `COc1ccc(N2CCN(C(=O)c3cn(C)c4ccc(S(=O)(=O)N5CCOCC5)cc4c3=O)CC2)cc1`: the activity change, positive = activation is inactive: -14.7% [at 11.5 µM, percent change from vehicle, -100% = no light].

Source of the values: PubChem BioAssay AID1508624 (National Center for Advancing Translational Sciences (NCATS), 2021).
